Test results published in ChEMBL document CHEMBL4888484, “Replenishing the malaria drug discovery pipeline: Screening and hit evaluation of the MMV Hit Generation Library 1 (HGL1) against asexual blood stage Plasmodium falciparum ,using a nano luciferase reporter read-out” (2022).
Screen size: about 150,000 compounds; about 540 (0.36%) showed an effect of 50% or more. The list shows a part of the results.

Each molecule was assayed on Plasmodium falciparum (assay: Primary screen in NF54 nanoGlo assay, in single point, at 2uM, 72h; a lower Z score goes with more inhibition). Conditions: timepoint 72 hour.
Assay type: functional, Erythrocyte

Structure (SMILES)	% Inhibition [%]	Z score
CC(C)(CNC(=O)[C@@H]1CCCN1C(=O)c1cccs1)N1CCOCC1	-2	0.17
C[C@]1(O)CCN(c2cnccn2)C[C@H]1Cc1ccccc1	-9	1.16
Cc1cc(=O)n(CC(=O)Nc2ccc3c(c2)CCC3)c(N2CCc3ccccc3C2)n1	-6	0.89
C[C@@H](CNS(=O)(=O)c1ccco1)N(C)S(=O)(=O)c1ccco1	31	-0.45
Cc1n[nH]c([C@@H]2CN(C(=O)CCc3nc4ccccc4s3)C[C@H]2C(N)=O)n1	-8	1.29
Cc1cnc([C@H](C)NC(=O)c2cc3n(n2)CCC3)s1	34	-3.85
CC(C)c1ncsc1C(=O)Nc1ccsn1	-25	2.75
Cc1ccc2c(c1)cc(CN1CC[C@H](CNC(=O)CC3CC3)C1)n2C	-9	1.59
N#Cc1c(NC(=O)c2cccc3ccccc23)sc2c1CCC2	-4	0.61
Cc1cc(C)n(CC(=O)N2CCOc3ccc(C(=O)N4CCCC4)cc3C2)n1	-30	2.94
CC1OCCC1C(=O)Nc1ccc(-n2cc(C#N)c(N)n2)cc1 (configuration not stated)	-2	0.27
COc1ccc2[nH]c3c(c2c1)CCN(C(=O)c1ccc(C)c(C)c1)[C@H]3COCc1ccccc1	0	0.02
CC1CCN(c2nc(N3CCN(C)CC3)nc3c2CN(C(=O)c2ccccc2Cl)CC3)CC1	-2	0.24
C[C@H]1CS(=O)(=O)C[C@H]1NC1CC2(CCCCC2)C1	28	-3.14
Cc1nc(-c2csc(S(=O)(=O)N3CCC[C@H](C(=O)NC4CCCCCCC4)C3)c2)no1	-4	0.46
O=C(Nc1ccc(N2CCCCC2)cc1)c1cccnc1O	-4	0.76
O=C(Nc1ccc(C(F)(F)F)cc1)N1CCN2C(=O)NC[C@H]2C1	-10	1.92
Cn1ccnc(N2CCCN(c3cccc(F)c3F)CC2)c1=O	2	-0.23
Fc1ccc2c(c1)CCC[C@@H]2NCCc1nnc2ccccn12	-11	1.38
Cc1cc(C)c(C(=O)N[C@@H](CC2CC2)C(=O)O)s1	-9	1.68
Cc1cc(C)n(-c2ccc(C(=O)N3CCN(c4nonc4C)CC3)cc2)n1	-17	1.84

Structure (SMILES)	% Inhibition [%]	Z score
CC(C)N1CCN(C(=O)c2cc3c(=O)[nH]c(-c4ccccc4)cn3n2)CC1	-13	2.15
Cc1nc(N2CCCC2)nc(C)c1NC(=O)c1cccs1	-8	1.32
O=c1c2cc(-c3ccc(F)cc3)nn2ccn1C[C@H](O)c1ccccc1Cl	-5	0.59
CCn1nc(NC(=O)Nc2nnc(Cc3cccc(OC)c3)s2)cc1C1CC1	3	-0.3
Cc1nn(CN(CCC#N)C[C@H]2CCOC2)c(C)c1Br	-5	0.98
CCc1nc2n(n1)CC(NC(=O)NCC(C)(O)C1CCCCC1)CC2 (configuration not stated)	-13	1.87
CC[C@H]1CCc2c(nc3ccccc3c2O)O1	2	-0.28
Cc1cc(C)nc(N2CCCN(c3cccc(F)c3F)CC2)n1	-19	2.34
COc1cc([C@H]2CC(O)=Nc3c2c(-c2ccccc2)nn3-c2ccccc2)ccc1O	37	-1
O=C(c1cccc(Cn2ccnc2)c1)N1CCOC2CCCCC21 (configuration not stated)	-10	1.38
O=C(c1cc2c(cn1)OCCC2)N1CCN(c2ncccn2)CC1	-13	2.57
OC(CC1CCCN1CCc1ccncc1)c1cccs1 (configuration not stated)	4	-0.36
C=C(C)COc1ccc(NC(=O)[C@@H](N)C2CCCCC2)cc1	3	-0.61
COc1ccccc1-c1csc2c1NC(=O)C[C@@H]2c1ccc2c(c1)OCO2	2	-0.25
CN(C)c1nccc(CNC(=O)c2ccc3c(c2)OCO3)n1	-2	0.46
CCc1ccc(S(=O)(=O)Nc2ccc3[nH]c(=O)sc3c2)cc1	-4	0.55
Cc1cc(N2CCC(NC(=O)c3ccnc(-c4ccccc4)c3N)CC2)nc(C)n1	-10	1.26
O=C(NS(=O)(=O)c1cccnc1)C1=CCCCCC1	-7	0.82
c1c(CNc2nc(C3CC3)nc3c2CCC3)nnn1C1CCC1	-3	0.55
O=C(COCc1ccccc1)N1[C@H]2CCNC[C@@H]1CC2	-10	1.12
